In all, about 360,000 compounds went through this assay and about 16,000 (4.4%) were called active. Inconclusive means that the source gave no clear call. Such entries were picked first, then a sample of the others. The call rests on the fitted dose curve; in most records, active means well fitted inhibition curve with a large enough effect; inconclusive means small, poorly fitted or top-dose-only effect; inactive means no such curve, though single readings can be large or run the other way. Where the call is inconclusive, the potency comes from a doubtful curve fit.
What follows are molecules tested against Bromodomain adjacent to zinc finger domain protein 2B (Homo sapiens) (UniProt Q9UIF8) (assay: qHTS Assay for Inhibitors of BAZ2B). Settings: AlphaScreen BAZ2B-H3K14Ac peptide displacement; activity change, negative = inhibition: at 114 µM (top of the series).
Sequence of UniProt Q9UIF8 (Q9UIF8 whole entry, looked up, the tested form may be a part): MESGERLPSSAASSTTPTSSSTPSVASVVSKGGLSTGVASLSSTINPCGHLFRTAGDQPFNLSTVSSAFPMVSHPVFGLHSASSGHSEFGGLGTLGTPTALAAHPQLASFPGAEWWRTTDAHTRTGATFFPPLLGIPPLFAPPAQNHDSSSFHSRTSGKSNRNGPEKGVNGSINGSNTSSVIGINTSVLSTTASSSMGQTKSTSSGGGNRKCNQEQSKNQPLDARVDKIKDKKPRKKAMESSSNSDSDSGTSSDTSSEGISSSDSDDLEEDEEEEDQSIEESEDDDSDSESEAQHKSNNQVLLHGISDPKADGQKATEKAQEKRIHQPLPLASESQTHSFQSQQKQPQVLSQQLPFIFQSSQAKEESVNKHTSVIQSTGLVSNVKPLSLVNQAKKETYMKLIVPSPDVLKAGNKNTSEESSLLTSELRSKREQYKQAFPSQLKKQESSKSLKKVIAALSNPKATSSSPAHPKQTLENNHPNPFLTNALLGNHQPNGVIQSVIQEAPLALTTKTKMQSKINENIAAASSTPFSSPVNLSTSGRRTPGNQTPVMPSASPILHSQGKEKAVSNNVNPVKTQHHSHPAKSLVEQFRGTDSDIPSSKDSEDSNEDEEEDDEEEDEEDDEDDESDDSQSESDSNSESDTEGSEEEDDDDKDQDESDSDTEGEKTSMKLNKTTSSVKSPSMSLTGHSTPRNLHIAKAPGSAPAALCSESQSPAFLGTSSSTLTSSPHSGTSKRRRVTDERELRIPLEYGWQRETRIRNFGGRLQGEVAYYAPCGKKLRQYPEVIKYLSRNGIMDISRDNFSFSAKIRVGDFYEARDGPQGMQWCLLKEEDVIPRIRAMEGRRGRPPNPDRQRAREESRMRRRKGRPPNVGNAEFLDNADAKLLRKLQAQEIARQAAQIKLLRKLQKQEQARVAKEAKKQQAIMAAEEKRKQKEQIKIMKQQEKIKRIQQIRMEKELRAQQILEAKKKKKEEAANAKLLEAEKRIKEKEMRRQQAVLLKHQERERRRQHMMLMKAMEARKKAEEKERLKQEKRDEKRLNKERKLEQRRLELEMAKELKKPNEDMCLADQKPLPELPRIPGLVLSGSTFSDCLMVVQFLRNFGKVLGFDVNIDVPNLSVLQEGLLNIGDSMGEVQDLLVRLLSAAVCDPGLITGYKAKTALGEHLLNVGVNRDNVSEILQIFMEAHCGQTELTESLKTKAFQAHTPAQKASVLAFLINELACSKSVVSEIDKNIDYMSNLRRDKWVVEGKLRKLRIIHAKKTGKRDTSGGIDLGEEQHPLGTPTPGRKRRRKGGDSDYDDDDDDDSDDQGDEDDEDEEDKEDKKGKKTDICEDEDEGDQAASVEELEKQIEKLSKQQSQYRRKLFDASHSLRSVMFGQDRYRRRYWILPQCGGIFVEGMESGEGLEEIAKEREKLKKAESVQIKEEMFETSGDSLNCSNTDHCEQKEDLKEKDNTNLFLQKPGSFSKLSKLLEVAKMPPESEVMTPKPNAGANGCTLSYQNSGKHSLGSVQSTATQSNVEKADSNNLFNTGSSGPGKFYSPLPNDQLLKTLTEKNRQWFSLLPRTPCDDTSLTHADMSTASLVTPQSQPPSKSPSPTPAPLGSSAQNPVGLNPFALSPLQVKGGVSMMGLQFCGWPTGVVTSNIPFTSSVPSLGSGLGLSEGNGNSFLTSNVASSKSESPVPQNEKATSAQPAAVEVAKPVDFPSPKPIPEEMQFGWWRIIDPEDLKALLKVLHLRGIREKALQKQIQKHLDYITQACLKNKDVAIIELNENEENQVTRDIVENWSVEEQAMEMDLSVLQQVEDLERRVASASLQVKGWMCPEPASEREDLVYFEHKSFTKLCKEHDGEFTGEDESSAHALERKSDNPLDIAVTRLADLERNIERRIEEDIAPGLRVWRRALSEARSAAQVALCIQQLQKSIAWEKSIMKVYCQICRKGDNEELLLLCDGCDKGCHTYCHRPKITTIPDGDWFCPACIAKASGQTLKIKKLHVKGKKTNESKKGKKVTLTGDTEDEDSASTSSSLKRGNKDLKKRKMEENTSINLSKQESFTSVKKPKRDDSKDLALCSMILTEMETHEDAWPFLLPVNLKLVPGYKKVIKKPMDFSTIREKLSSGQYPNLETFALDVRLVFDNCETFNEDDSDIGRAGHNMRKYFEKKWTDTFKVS
Outline: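 Inhibition is scored as reduced AlphaScreen emission. The BAZ2B/b-H3(5-23)K14Ac complex (50 nM each) in PBS pH 7.4, 0.01% Tween-20 meets compound (up to 110 uM) for 30 min at RT before bead addition.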
CCn1cc(C(=O)OC)c(=O)c2ccc(C)nc21 was tested, and the “activity change, negative = inhibition” value was inactive: -21%. Cc1ccc(S(=O)(=O)N2CCN(C(=O)c3ccco3)CC2)cc1 was tested, and the “activity change, negative = inhibition” value was inactive: -12.8%. Cc1ccc(/C(=N/Nc2nc3ccccc3s2)C2=C(O)c3ccccc3C2=O)cc1 was tested, and the Potency was inconclusive: 20 µM [inhibitor, full curve, poor fit]. For CCOC(=O)N1CCC(NS(=O)(=O)c2cc(Br)cnc2N)CC1, the “activity change, negative = inhibition” value was inactive: 3.28%. CCOC(=O)c1ccc(NC(=O)CCn2ccc(C)n2)cc1 was tested, and the “activity change, negative = inhibition” value was inactive: -2.13%. In the case of Cc1cccc(N=Nc2c(C)[nH]n(C(N)=S)c2=O)c1C, the Potency is reported as inconclusive: 79.4 µM [inhibitor, partial curve]. With COc1cc(-c2nc3n(n2)C(c2ccncc2)C2=C(CCCC2=O)N3)cc(OC)c1OC (stereo not given) the “activity change, negative = inhibition” value was inactive: -14.6%. With COC(=O)CCCC1=CC2=CC(=O)C(C)(OC(=O)c3cccs3)C(=O)C2=CN1C1CCCCC1 (stereo not given) the Potency was inconclusive: 63.1 µM [inhibitor, partial curve, poor fit]. For CCOC(=O)c1ccc2c(c1)C1C=CCC1C(C(=O)O)N2 (stereo not given), the Potency was active: 6.31 µM. COCCNC(=O)C(c1ccccc1)N(Cc1cccs1)C(=O)Cn1nnc2ccccc21 (stereo not given) was tested, and the “activity change, negative = inhibition” value was inactive: 10.6%. For Cc1ccc(S(=O)(=O)C(CNC(=O)C(=O)NCc2ccccc2C)c2cccs2)cc1 (stereo not given), the “activity change, negative = inhibition” value was inactive: -3.46%. With CC(Oc1cccc(Br)c1)C(=O)NNC(=O)CCNC(=O)c1ccccc1Cl (stereo not given) the “activity change, negative = inhibition” value was inactive: 6.2%. CSc1nc(C)cc(SC(C(C)=O)C(=O)Nc2ccccc2)n1 (stereo not given) was tested, and the Potency was inconclusive: 89.1 µM [inhibitor, single point]. With COc1ccc(C(=O)NCc2ccc3[nH]c(C)cc3c2)cc1OC the Potency was inconclusive: 50.1 µM [inhibitor, partial curve]. For CCC(c1nnnn1C1CCCCC1)N1CCN(C2CCCC2)CC1 (stereo not given), the Potency was inconclusive: 89.1 µM [inhibitor, single point]. In the case of COCCNC(C)C(=O)Nc1ccc(Br)cc1 (stereo not given), the Potency is reported as active: 50.1 µM. With O=C(CNC1CCCCCC1)Nc1ccc(N2CCCC2)cc1 the Potency was inconclusive: 31.6 µM [inhibitor, single point]. For O=C(NCc1cccs1)C1CCN(C(=O)N2CCOc3ccc(Cl)cc32)CC1, the Potency was inconclusive: 44.7 µM [inhibitor, partial curve]. With CCOC(=O)CSc1nc2sc3c(c2c(=O)n1-c1ccc(OCC)cc1)CCN(C)C3 the Potency was inconclusive: 79.4 µM [inhibitor, single point]. For COc1ccc2cc(C(c3nnnn3Cc3ccccc3)N3CCCCCC3)c(=O)[nH]c2c1 (stereo not given), the “activity change, negative = inhibition” value was inactive: -1.53%. In the case of Cc1ccc(-c2nc(C#N)c(NCC3CCCO3)o2)cc1 (stereo not given), the Potency is reported as inconclusive: 79.4 µM [inhibitor, single point]. With O=C(/C(=C/O)N=Nc1ccccc1)c1cccs1 the Potency was active: 22.4 µM. In the case of NC(=O)CC(NC(=O)c1ccccc1)c1ccc(NCc2ccc(F)c(F)c2)c([N+](=O)[O-])c1 (stereo not given), the Potency is reported as inconclusive: 79.4 µM [inhibitor, single point]. In the case of O=C1c2c(O)cc(O)cc2O[C@H](c2ccc(O)c(O)c2)[C@H]1O, the Potency is reported as inconclusive: 89.1 µM [inhibitor, single point]. For COc1ccc(-c2[nH]c(-c3ccc(F)cc3)nc2SCC(=O)NC2CCCC2)cc1, the Potency was inconclusive: 44.7 µM [inhibitor, partial curve]. For CN1c2ccccc2Sc2cc(N)ccc21, the Potency was active: 28.2 µM. In the case of Cc1ccc2cc3c(NS(=O)(=O)c4cccc5nonc45)nn(CC(C)C)c3nc2c1, the Potency is reported as inconclusive: 15.8 µM [inhibitor, partial curve]. CC(=O)Nc1nc(-c2ccccc2)nc(C)c1C(C)=O was tested, and the “activity change, negative = inhibition” value was inactive: 6.13%. For COCC(=O)N(Cc1cc2cc(OC)ccc2[nH]c1=O)c1ccccc1OC, the “activity change, negative = inhibition” value was inactive: 5.45%. Cc1nn(C)c(C)c1CN(Cc1nc(-c2ccc(F)cc2F)oc1C)C1CC1 was tested, and the Potency was inconclusive: 44.7 µM [inhibitor, partial curve]. Cc1ccc(Cn2ccnc2SCC(=O)Nc2nc3ccccc3s2)cc1 was tested, and the Potency was inconclusive: 10 µM [inhibitor, full curve]. With Cn1nc(C(=O)Nc2nc3ccccc3[nH]2)ccc1=O the Potency was inconclusive: 89.1 µM [inhibitor, single point]. COc1cc(CNCc2ccccn2)ccc1OCC(=O)NC1CCCCC1 was tested, and the Potency was active: 56.2 µM. For O=C(Nc1cccc(CNCCc2c[nH]c3ccccc23)c1)c1ccccc1Cl, the Potency was active: 50.1 µM. With CCn1ccnc1CN(C)Cc1cn(-c2ccc(C)cc2)nc1-c1cccc(C)c1 the Potency was active: 39.8 µM. O=C(Cc1c(Sc2ccccc2)c2ccccc2n1Cc1ccccc1)NCCO was tested, and the “activity change, negative = inhibition” value was inactive: -6.29%. CCOc1ccc(N=C2C(=O)Nc3ccc(C)c(Br)c32)cc1 was tested, and the Potency was active: 35.5 µM. In the case of Nc1ccc(NC(=O)Nc2ccc(N)cc2)cc1, the “activity change, negative = inhibition” value is reported as inactive: -16.9%. With CCc1ccc2nc(Nc3ncc(C(C)=O)c(C)n3)nc(C)c2c1 the Potency was inconclusive: 89.1 µM [inhibitor, single point]. In the case of CCOC(=O)CNS(=O)(=O)c1cc(-c2nn(C)c(=O)c3ccccc23)ccc1C, the Potency is reported as active: 56.2 µM. For Cc1ccc(S(=O)(=O)N2CCN(C(=O)C(C)Cn3nc(C)c(C)c3C)CC2)cc1C (stereo not given), the “activity change, negative = inhibition” value was inactive: 0.337%. For COc1cccc(-n2c(CN3CCN(Cc4ccccc4)CC3)nc3ccc([N+](=O)[O-])cc3c2=O)c1, the Potency was inconclusive: 79.4 µM [inhibitor, single point]. With CCOC(=O)C(=O)Nc1nccs1 the Potency was inconclusive: 70.8 µM [inhibitor, single point]. With COc1ccc(Nc2oc(COc3ccc(C)cc3)nc2C#N)cc1 the Potency was inconclusive: 35.5 µM [inhibitor, full curve]. For CN(C)CCNC(=O)c1ccccc1-c1ccccc1, the “activity change, negative = inhibition” value was inactive: -5.81%. With CCOC(=O)N1CCC2(CC1)OC(=O)C(C)=C2C(=O)NCc1cccc(F)c1 the “activity change, negative = inhibition” value was inactive: 1.03%. With CCC1CCCCN1C(=O)COc1c(Br)cc(Br)c2cccnc12 (stereo not given) the “activity change, negative = inhibition” value was inactive: -32.8%. Cc1cc(-n2c(=S)sc3c(=O)n(-c4ccc(F)cc4)c(SCC(=O)O)nc32)ccc1Cl was tested, and the “activity change, negative = inhibition” value was inactive: -1.69%. CCCCCCC(=O)Nc1nc(C)c(-c2csc(Nc3cccc(OC)c3)n2)s1 was tested, and the Potency was active: 50.1 µM. In the case of CCc1ccc(CNCc2c(C(=O)O)n(Cc3ccc(C)cc3)c3cc(C)ccc23)cc1, the Potency is reported as inconclusive: 79.4 µM [inhibitor, single point].

Reference: PubChem BioAssay AID504333 (National Center for Advancing Translational Sciences (NCATS), 2011)
Further: nearly all actives have a fitted effect of over 60% in size.
On the % scale 0 is the no-effect control and ±100 the full control effect; potency means the concentration at half of the fitted maximal effect; tags describe the fitted curve by direction and shape.
